Results on 4 substances are retold here after PMC5221442.

No constants are given. Whether binding was seen depends on the method and setting. Some binding calls cover weakened binding; strength is not graded here.

For experiment [1], the target named is T1, outer membrane protein C (OmpC) of E. coli K-12, endogenous on BW25113 cells and its LPS mutants (E. coli K-12 (endogenous in BW25113)) (UniProt P06996).
T1 sequence: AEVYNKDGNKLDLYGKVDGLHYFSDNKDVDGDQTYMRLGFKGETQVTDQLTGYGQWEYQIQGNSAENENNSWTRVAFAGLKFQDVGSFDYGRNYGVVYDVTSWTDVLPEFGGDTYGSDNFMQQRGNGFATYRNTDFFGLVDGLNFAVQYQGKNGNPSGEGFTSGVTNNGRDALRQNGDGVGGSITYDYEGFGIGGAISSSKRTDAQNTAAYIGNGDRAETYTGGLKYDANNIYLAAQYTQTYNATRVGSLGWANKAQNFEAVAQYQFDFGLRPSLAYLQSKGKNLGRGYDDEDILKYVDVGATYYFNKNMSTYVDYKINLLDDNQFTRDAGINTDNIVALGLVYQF
As to the kind of experiment: phage adsorption assay.

Experiment [2] deals with T2, E. coli K-12 OmpC expressed from pBAD33-ompC(K-12) on E. coli O157 ∆waaJ ∆ompC cells (E. coli K-12 (W3110)) (UniProt P06996).
T2 sequence: T1 sequence
Nature of the experiment: phage adsorption assay.

Regarding “gp37 of T4 mutant Nik8 (G943S), on phage particles (from UniProt P03744 1-1026)”, the binding result in experiment [1] is “no binding”.

As for “gp37 of T4 mutant Nik2 (A955E), on phage particles (from UniProt P03744 1-1026)”, the binding entry in experiment [1] was “no binding”.

On to “bacteriophage T4 long tail fiber protein gp37 (distal tip, DT), wild type, on T4D phage particles (from UniProt P03744 1-1026)”, for which the binding entry in experiment [1] and in experiment [2] was “binds” each time.

“gp37 of T4 mutant Nik1 (V941E), on phage particles (from UniProt P03744 1-1026)”: the binding entry in experiment [1] was “no binding”.
